Experimental data: the supplement of paper PMC11417369
The other results are listed elsewhere or left out.

Test system: PfSIP2 AP2 domain 1 (GST-tagged)
Experiment: gcPBM binding intensity (ln(normalized median fluorescence intensity)); higher = stronger DNA binding
Summary of the method: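 For binding intensity, the highest Masliner-normalised natural-log median intensity across replicate spots of either probe orientation was taken. Protein bound to the array was stained with Alexa488 anti-GST antibody and scanned at 488 nm. The protein, GST-tagged P. falciparum DNA-binding domains from E. coli at about 25 μg on average, had been applied for 1 h to an Agilent 4 × 180k array of primer-extended double-stranded 36-bp intergenic genomic probes and negative controls.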

Row | Sequence | gcPBM binding intensity (ln)
1 | AGAGAAAAATATTTGGACAAAAATAATATAATATAT [CACACA_negctrl_site656] | 6.96
2 | ATTCGTATGAGCATAACACACAATATCGATATTTCT [CACACA_site4165] | 6.83
3 | AATTAAAATACAAATGTATGCATGTCTCATATAGAA [TGCATGCA_site822] | 6.78
4 | TTACGAATTACATATTGTACATATGCACAATTTTAA [XGTACX_site6802] | 7.4
5 | TACATAATTTAAAATTTTATAAGTTGTAATTCGTTT [XGTACX_negctrl_site308] | 6.69
6 | ATAAAACAACAAAGAAAATGAAAAAGTAAAAACATA [CACACA_negctrl_site596] | 6.69
7 | TATTTATAAAAAGATTGTACATTTTTTATTATTGTA [XGTACX_site6016] | 7.01
8 | TCCTATAATAACGTCACACATTAAATTTAATAAATT [CACACA_site4506] | 6.99
9 | TATACAAAATATTTTACACACACATATATATACATA [CACACA_site2616] | 7.15
10 | CATTATTTATTTTAATGTACTTATTTTTAAATTGGT [XGTACX_site8038] | 7.07
11 | AAAAAAAAAAAAAAAACACACATATATCTATAATAT [CACACA_site6665] | 7.42
12 | AGTGCATACATGAATTGTACTTTAAAATAAATTCTA [XGTACX_site8156] | 8.19
13 | AAAATATAATATAATGCACACATAAACAAAAAAAAA [CACACA_site8161] | 7.26
14 | TTTTTTTTTTTTTTGGGTACATAATAATAACAAGTG [XGTACX_site1034] | 7.36
15 | TTTTATTTAACTCATAATTTTTTAAAAAACAATTAT [XGTACX_negctrl_site19] | 6.82
16 | CATGTAATATTAAACACACACTCATATAACTCAATA [CACACA_site4212] | 6.85
17 | CACATATACTTCTGTGCACACGAATATTTTTCTTCT [CACACA_site1408] | 9.1
18 | TTAACATTATATGAAGGTACAGAAAAAAAAAAATTA [XGTACX_site8530] | 6.92
19 | TTTCTTATAGATTTTAATCCTCTATCAAAAAAAGAA [GTGCAC_negctrl_site162] | 6.96
20 | CATACAGTATTATACTGTACCCATACAAAAAAATAT [XGTACX_site6130] | 7.21
21 | AAATAAAAAAAATTTGCACACCTTCAAAGTAATATA [CACACA_site1583] | 7.25
22 | CTTATTTAAGAGTATGAACACACATCATACACATAT [CACACA_site9205] | 6.95

Row | Sequence | gcPBM binding intensity (ln)
23 | TTTTTAATATTCTATGCATGCATCGCATATTTGGTT [TGCATGCA_site1004] | 6.83
24 | TTTCATTGGTTTATAAAATTATGAGATCTTAAAGAC [CACACA_negctrl_site1484] | 7.22
25 | TCTGTAAAGTAATGGACACACAATATATCCATTTAT [CACACA_site1536] | 6.95
26 | ATATATATATATATATGTACATATATTTATATTTAT [XGTACX_site6179] | 9.37
27 | GAATAATATGGACATACACACATATACATACAGATA [CACACA_site5200] | 7.25
28 | TTATATATCTATAATACACACATAATAATATATTTA [CACACA_site7423] | 6.91
29 | GCTACGTAAAAAATATGTACATATGAAATATTTTGC [XGTACX_site5111] | 7.09
30 | ATACATATATAAATACGTACATATATAATTATATAT [XGTACX_site8178] | 7.4
31 | AAATGAGAAGAAATACGTACATATAATAAAATAATT [XGTACX_site4439] | 7.06
32 | ATGCATAAATTTTGAAGTACAAAAAAAAAAAATAAA [XGTACX_site7282] | 6.98
33 | ATATATAATAAATACACACACATGTATTTATAAATA [CACACA_site5135] | 6.91
34 | TGAATTATAAATTATAGTACTTTATAATATGAACAT [XGTACX_site2317] | 6.81
35 | ATATAAATAAATTAGTGAAAAAAAAAAAATTTTTTT [CACACA_negctrl_site945] | 6.7
36 | CTCCATATGAAACACACACACAAATGAAAAAAATAT [CACACA_site3018] | 7.25
37 | AATTAACAAAGACACACACACACACGCACAAAAAAA [CACACA_site6388] | 7.26
38 | TTTAAAAAAATATATACACACATATATATATATATA [CACACA_site617] | 9.43
39 | ATAGAAATAAAATAAAATAAAAAAAAAATAATGAAA [CACACA_negctrl_site1565] | 6.85
40 | CATATATATATATATTGTACAAGATTGTTTTTTTAT [XGTACX_site3913] | 7.41
41 | ATGATCATAAGACACACACACAAAAAAAAAAAAAAA [CACACA_site6936] | 6.93
42 | TCTGTGCACGCATGAAGTACAAAAAAGGTTTCCAGT [XGTACX_site5049] | 9.78
43 | CTATATACTAAATGCACACTTATATATTTATATATA [CACACA_site2454] | 7.65
44 | TATATTTTTTTAATATGTACATATATATATAAAACA [XGTACX_site2171] | 7.28

Row | Sequence | gcPBM binding intensity (ln)
45 | TAATTTTTATTTATAATAATATATGACATATATCCA [XGTACX_negctrl_site359] | 6.94
46 | ATGAACAAAATGTAATGTACGAATAATTATTCATAT [XGTACX_site4812] | 6.97
47 | TTAAGAATATCTACATGTACATACCAAAGAAATACA [XGTACX_site3125] | 7.31
48 | TTTTATTCCTATTTATTTATATTTTTGTCTTATATC [CACACA_negctrl_site125] | 6.78
49 | TAATTTTTTTTTTTTTTTTTTTTTTTTTTTTTCCTT [CACACA_negctrl_site1095] | 6.82
50 | GGAATAATATAAAACACACACATAAATATAAATATA [CACACA_site3376] | 6.97
51 | TATAGACAAACACATACATGCATACATACATACATA [TGCATGCA_site273] | 7.08
52 | AAAAAAAAGTTCTACACACACAAAAAAATATTTTTT [CACACA_site2309] | 6.73
53 | GTGTGCTTTTTACGAGTGCAAGTATTTTGGTGGTTA [GTGCAC_site9496] | 9.35
54 | GTACACATATAATATACACACAACAAATATGCACAT [CACACA_site1010] | 8.85
55 | AATACATATTCAAAGGTGCAAAATAAAAATATACAT [GTGCAC_site9743] | 11
56 | TTATAATAAGATTGTTGTACTTATATTCCTTCTATA [XGTACX_site3173] | 6.89
57 | TGTTTTGTATATATAGCATGCAGTAAGGGAAAAAAA [TGCATGCA_site652] | 7.25
58 | TAGTTATAAGAGTTACAAAGAATACCGGAAATATAG [CACACA_negctrl_site1829] | 7.23
59 | TCGTTTCATATTTATCATGAGATAATCACACGAACA [TGCATGCA_negctrl_site497] | 7.18
60 | AATGTCAATTTTAATAGTACACAAATATATATATAT [XGTACX_site521] | 8.77
61 | AATGACCATTTTTAAAATTACAAATACATACAACTG [TGCATGCA_negctrl_site420] | 6.82
62 | AAGTATTATTATAAGACACACATGTATTTAAGTATA [CACACA_site4922] | 6.84
63 | TTATATATAGATCACACACACACACCGGTTTTAAAA [CACACA_site4220] | 6.93
64 | AAATTTTAATTAGGAACACACATATATATATATATA [CACACA_site5673] | 9.42
65 | TATTTATCTATATATTGTACTTATTAGTCTTAATGT [XGTACX_site4242] | 7.1
66 | TAAATTTATGGACACACACACATATATATATATATA [CACACA_site4620] | 9.35

Row | Sequence | gcPBM binding intensity (ln)
67 | TCTTTTTTAATATAATATATTTTTATTAAGTAAATC [TGCATGCA_negctrl_site408] | 6.91
68 | TTTTCAGAAAAGAGAAACTTTATTTTTCACAACCGA [TGCATGCA_negctrl_site389] | 6.55
69 | ATTTTTTATGAAAATAAACACACGATTTATTATATA [CACACA_site1312] | 6.76
70 | TAAAAAATTATTAAACGTACGAGACTTTTTATCAGT [XGTACX_site2219] | 7.05
71 | TGTAGTCATTAGTCAAATTAGAATTAAATATATATT [GTGCAC_negctrl_site643] | 6.94
72 | CATAAAAATGGATACACACACATAATATATTTATAT [CACACA_site7669] | 7.16
73 | ACAATATATTCATATTGTACATAAAATAAGGCTAAC [XGTACX_site6728] | 7.44
74 | TATATTTAAATTCTTTCAAATCATGTTGTAATTTTT [CACACA_negctrl_site1349] | 6.8
75 | ATACACTTAATATTATGTACATATATAAAAAAAATA [XGTACX_site1500] | 7.19
76 | TATAAAAATAATATTACACACATGTAAAATGGGGGT [CACACA_site9071] | 7.28
77 | AGGAATATCGAAAACTGTACTTGTATGTTTCATAAA [XGTACX_site6143] | 6.94
78 | AATTGTATGTATGCCTGTACATATGTCTATCTTAAG [XGTACX_site1927] | 6.92
79 | TATTTTATATGAGGCACACAAATTTTAATTGTTATT [CACACA_site725] | 6.72
80 | ATTTATTTATTTTTTTGTACTTATAATTTTTATTAT [XGTACX_site2656] | 7.03
81 | GCACATATGAATATAATACACACTTGTATTATTAAT [CACACA_site1841] | 6.9
82 | ATTTTATATACAAAATGTACATATTTATTATATATG [XGTACX_site6732] | 6.99
83 | GGAGCTATCTCCTGCACACACAATTTTTTTTTTTTT [CACACA_site2240] | 7.04
84 | AAGGATACGCAAAAATGTACAAAATGCTTATAAATA [XGTACX_site984] | 6.94
85 | ATTAAAATCATATACACACCCATATATATATATATA [CACACA_site5050] | 9.39
86 | ATACATATCTACCTATGTACATAATACAACAAAGAT [XGTACX_site323] | 7.2
87 | GAATAAATACCGGTGTGTACTTAAATCATTCACGAA [XGTACX_site3174] | 6.91
